The source of these data is publication PMC3974872.

Amino acid sequences for entries named in this document (tags omitted).
UniProt P12004: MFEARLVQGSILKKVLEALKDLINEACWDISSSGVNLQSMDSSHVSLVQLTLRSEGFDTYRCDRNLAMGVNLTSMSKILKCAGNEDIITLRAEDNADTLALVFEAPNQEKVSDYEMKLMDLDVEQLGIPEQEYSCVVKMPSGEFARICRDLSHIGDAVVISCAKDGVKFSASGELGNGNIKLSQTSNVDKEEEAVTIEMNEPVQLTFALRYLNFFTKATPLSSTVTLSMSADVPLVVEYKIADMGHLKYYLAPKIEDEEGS
UniProt Q16531: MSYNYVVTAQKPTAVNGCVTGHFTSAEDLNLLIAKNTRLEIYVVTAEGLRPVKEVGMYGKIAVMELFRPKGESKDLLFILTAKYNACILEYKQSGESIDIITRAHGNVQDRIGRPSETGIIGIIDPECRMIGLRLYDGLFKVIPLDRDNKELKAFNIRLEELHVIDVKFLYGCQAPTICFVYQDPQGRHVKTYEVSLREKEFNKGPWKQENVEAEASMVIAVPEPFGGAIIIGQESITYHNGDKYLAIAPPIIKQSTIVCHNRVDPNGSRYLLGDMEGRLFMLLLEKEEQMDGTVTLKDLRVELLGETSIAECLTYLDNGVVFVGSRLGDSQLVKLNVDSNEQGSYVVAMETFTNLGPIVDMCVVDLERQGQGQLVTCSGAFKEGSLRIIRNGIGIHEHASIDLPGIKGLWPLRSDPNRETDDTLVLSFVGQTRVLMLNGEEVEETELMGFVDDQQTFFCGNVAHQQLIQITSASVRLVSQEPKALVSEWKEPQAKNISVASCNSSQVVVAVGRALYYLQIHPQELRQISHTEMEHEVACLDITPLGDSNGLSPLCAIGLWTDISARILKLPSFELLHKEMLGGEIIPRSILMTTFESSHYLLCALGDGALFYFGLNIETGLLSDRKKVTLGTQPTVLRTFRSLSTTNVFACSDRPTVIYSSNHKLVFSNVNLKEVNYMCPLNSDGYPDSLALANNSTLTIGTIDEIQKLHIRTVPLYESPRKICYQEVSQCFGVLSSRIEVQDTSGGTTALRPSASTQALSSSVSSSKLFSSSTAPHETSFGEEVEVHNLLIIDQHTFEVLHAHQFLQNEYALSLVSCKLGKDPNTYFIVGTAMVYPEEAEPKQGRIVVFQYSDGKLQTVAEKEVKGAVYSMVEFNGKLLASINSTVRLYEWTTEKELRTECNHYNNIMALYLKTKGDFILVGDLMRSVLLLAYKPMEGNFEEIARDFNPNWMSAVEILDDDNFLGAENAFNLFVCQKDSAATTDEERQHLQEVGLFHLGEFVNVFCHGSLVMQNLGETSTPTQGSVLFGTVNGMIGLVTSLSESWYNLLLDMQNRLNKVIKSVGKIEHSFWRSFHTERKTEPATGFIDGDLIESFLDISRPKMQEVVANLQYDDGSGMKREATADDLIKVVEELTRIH

The target in test [1] is T1, HA-tagged wild-type murine p21 (p21^WT) (murine) (UniProt P39689).
T1 sequence: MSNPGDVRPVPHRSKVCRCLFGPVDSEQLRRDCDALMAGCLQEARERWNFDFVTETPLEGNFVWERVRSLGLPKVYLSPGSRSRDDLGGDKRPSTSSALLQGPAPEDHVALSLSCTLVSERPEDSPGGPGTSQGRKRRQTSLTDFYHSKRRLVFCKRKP
In words: co-IP; HA-tagged p21 precipitated with HA antibodies from lysates of transfected 293T cells at 48 hr; blot for endogenous PCNA.

Test [2] deals with T2, FLAG-tagged wild-type murine p21 (p21^WT) (murine) (UniProt P39689).
T2 sequence: T1 sequence
In words: co-IP; FLAG-tagged p21 precipitated with FLAG beads from lysates of transfected 293T cells harvested at 48 hr; blots for endogenous proteins.

Test [3] deals with T2, FLAG-tagged wild-type murine p21 (p21^WT) (murine). In words: co-IP; FLAG-tagged p21 precipitated from transfected 293T cells treated with wild-type or scrambled p21 peptide (25 µM); blot for endogenous PCNA.
Test [4] addresses T3, FLAG-tagged murine p21^Δdegron (murine) (UniProt P39689).
T3 sequence: T1 sequence with K149A, R150A, R151A
In words: co-IP; FLAG-tagged p21 precipitated with FLAG beads from lysates of transfected 293T cells harvested at 48 hr; blots for endogenous proteins.

Residue numbers refer to the chain shown, from its start. These are yes or no findings as the source states them, for the method shown. Binding seen in cells or lysates may run through a third protein. Some binding calls cover weakened binding; strength is not graded here. Sequences can lack the tags named with a protein.

Turning to PCNA (from UniProt P12004 1-261), the binding entry in test [1], in test [2] and in test [3] was “binds” throughout.
As for DDB1 (from UniProt Q16531 1-1140), the binding entry in test [4] is given as “no binding”; in test [2], “binds”.
